Source: publication PMC4336329 (PLoS ONE, 2015)
Screen size: about 310,000 compounds; about 14,000 (4.5%) showed an effect of 50% or more. Effects have a minus sign here. The list shows a part of the results.

Target: human ether-à-go-go-related gene (hERG) potassium channel (human, UniProt Q12809)
Assay: primary screen, population patch clamp on CHO cells stably expressing hERG
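Also: peak tail current of the secondary pulse compared with the same well before compound.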

human ether-à-go-go-related gene (hERG) potassium channel, sequence (Q12809 whole entry, looked up): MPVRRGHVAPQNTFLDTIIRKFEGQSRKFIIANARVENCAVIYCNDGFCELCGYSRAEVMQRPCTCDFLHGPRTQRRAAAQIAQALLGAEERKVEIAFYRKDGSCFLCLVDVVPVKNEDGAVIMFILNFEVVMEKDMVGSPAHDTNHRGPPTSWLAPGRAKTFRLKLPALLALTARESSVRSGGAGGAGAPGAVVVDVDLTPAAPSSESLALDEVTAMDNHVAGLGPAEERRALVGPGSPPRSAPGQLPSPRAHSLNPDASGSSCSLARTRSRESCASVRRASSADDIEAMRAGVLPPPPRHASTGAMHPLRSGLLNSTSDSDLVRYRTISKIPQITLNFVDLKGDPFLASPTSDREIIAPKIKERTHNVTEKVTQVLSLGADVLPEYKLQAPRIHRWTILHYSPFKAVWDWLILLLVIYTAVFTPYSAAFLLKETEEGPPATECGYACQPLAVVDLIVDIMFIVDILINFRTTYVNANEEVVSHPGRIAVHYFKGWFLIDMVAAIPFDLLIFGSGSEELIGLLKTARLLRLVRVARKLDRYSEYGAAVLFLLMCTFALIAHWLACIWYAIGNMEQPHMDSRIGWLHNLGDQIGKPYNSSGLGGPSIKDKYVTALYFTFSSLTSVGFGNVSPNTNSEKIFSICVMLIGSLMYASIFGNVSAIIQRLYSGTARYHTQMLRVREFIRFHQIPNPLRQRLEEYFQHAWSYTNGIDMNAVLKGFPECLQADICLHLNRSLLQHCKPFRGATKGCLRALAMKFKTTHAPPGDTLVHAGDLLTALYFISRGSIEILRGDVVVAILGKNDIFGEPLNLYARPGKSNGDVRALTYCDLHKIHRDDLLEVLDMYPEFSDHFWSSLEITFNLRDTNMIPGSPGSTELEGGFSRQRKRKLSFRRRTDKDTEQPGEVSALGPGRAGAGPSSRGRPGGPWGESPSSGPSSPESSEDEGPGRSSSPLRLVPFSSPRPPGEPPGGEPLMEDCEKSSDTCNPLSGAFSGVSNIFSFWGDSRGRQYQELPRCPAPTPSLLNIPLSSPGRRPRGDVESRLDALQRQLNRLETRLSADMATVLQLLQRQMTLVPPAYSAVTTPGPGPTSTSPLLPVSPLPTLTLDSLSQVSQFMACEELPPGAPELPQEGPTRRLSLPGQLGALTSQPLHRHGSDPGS

SMILES | hERG current change (%, negative = inhibition) at 10uM
COCCNC(=O)C(Cc1c[nH]c2ccccc12)NC(=O)OCc1ccccc1 (stereo not drawn) | -4.52%
COC(=O)c1ccc(OCC(=O)c2ccc(C)c(C)c2)cc1 | 9.9%
CCc1ccc(Nc2cc(C)nc3nc(C)nn23)cc1 | -28.8%
CCC/C(=N\NC(=O)c1ccccc1C)c1ccccc1 | 3%
O=[N+]([O-])c1c(Nc2cccc(O)c2)cc(Cl)c2nonc12 | -23.2%
O=C(COC(=O)c1ccc(O)cc1)Nc1ccc(OC(F)F)cc1 | -32.3%
Cc1cc(OCC(=O)N2CCCC2)cc(C)c1Cl | -10.5%
O=C(Nc1ccc(Cl)cc1)N1CCC(c2nc(-c3ccc(F)cc3)no2)CC1 | 3.09%
COc1ccc(C(c2nnnn2C2CCCCC2)N2CCN(C)CC2)c(OC)c1 (stereo not drawn) | -4.87%
COc1ccc(-c2cn[nH]c2-c2ccc(O)cc2O)cc1OC | 9.8%
CCN(C(=O)CSc1nnc(-c2ccncc2)o1)c1ccccc1 | 3.61%
Cc1ccc(N2C(=O)C(Cl)=C(N3CCCCCC3)C2=O)cc1 | 17.1%
CCOC(=O)N1CCC(N(C(=O)Nc2ccc(CC)cc2)C(C)CC)CC1 (stereo not drawn) | -16.9%
CCOc1ccc(CC2CCC(=O)NC2=O)cc1 (stereo not drawn) | 3.09%
CC(=O)NC1(c2ccccc2)CCN(c2nc(C)cc(C)n2)CC1 | 17.8%
Clc1ccc(N2CCN(/N=C/c3ccncc3)CC2)cc1 | -7.28%
CCOc1ccc(S(=O)(=O)N/N=C(\C)C2CCCCC2)cc1 | -5.56%
CCCCCCCCCCn1cc(C(C)=O)c(=O)[nH]c1=O | 2.98%
C=CCn1c(SCC(=O)N(C)C)nc2sc3c(c2c1=O)CCC3 | -29.8%
COc1ccc(C(=O)NC(=S)NNC(=O)CCc2ccccc2)cc1 | 22.6%
CC(C)N(Cc1nccn1C)C(=O)CC1C(=O)NCCN1Cc1ccccc1C(F)(F)F (stereo not drawn) | 4.73%
CCn1c(SCc2ccc(F)cc2)nnc1-c1nn(-c2ccccc2)ccc1=O | -35.1%
CS(=O)(=O)N(CC(=O)N/N=C/c1ccccc1C(=O)O)c1cccc(Cl)c1Cl | -2.53%

SMILES | hERG current change (%, negative = inhibition) at 10uM
CN(C)C(=O)COC(=O)c1cccc(S(=O)(=O)N2CC3(C)CC2CC(C)(C)C3)c1 (stereo not drawn) | -40.9%
CCc1ccc(-c2cc(C(=O)NN3CCOCC3)c3ccccc3n2)cc1 | -11.9%
CC(=O)N1Cc2cc([N+](=O)[O-])ccc2Oc2ccccc21 | -17.7%
CCC(CO)NCc1ccccc1OC(C)C.Cl (stereo not drawn) | 11.7%
O=S(=O)(c1ccccc1)N1CN(Cc2ccc(F)cc2)c2nc3ccccc3nc21 | -15.6%
Cc1ccc(NC(=O)CN(C)S(=O)(=O)c2cnc[nH]2)cc1C | 12.1%
O=C(Nc1cccc([N+](=O)[O-])c1)N1CCc2ccccc2C1 | -25.7%
C[C@@H](CN1C(=O)C(=O)NC[C@@H]1C)NC(=O)CC12CC3CC(CC(C3)C1)C2 | 11.7%
Cc1onc(-c2ccccc2)c1-c1n[nH]c(=S)n1-c1ccc(C(=O)O)cc1 | 22.4%
O=C(Nc1cccnc1)c1ccc(COc2ccccc2Br)o1 | 20.1%
Cc1cccc(NC(=S)NCc2ccco2)n1 | -9.92%
CC(C)(CO)NCC(O)Cn1cc(C=O)c2ccccc21 (stereo not drawn) | 23.9%
Fc1ccc(F)c(CNc2ncnc3cc(Cl)ccc23)c1 | 19%
Cc1ccsc1C(=O)NNC(=O)C1CC=CCC1C(=O)O (stereo not drawn) | 5.83%
COc1cc2[nH]c(=S)n(NC(=O)CC(C)C)c(=O)c2cc1OC | 11.7%
Brc1ccc(-c2nn[nH]n2)cc1 | 11.2%
O=C(Nc1ccccc1)/C(=C\c1ccc2c(c1)OCO2)NC(=O)c1ccco1 | 4.18%
Cc1ccc(S(=O)(=O)CCC(=O)OCC(=O)NCC(=O)Nc2c(C)cc(C)cc2C)cc1 | -2.42%
Cc1ccc(S(=O)(=O)O/N=C2\CCCc3ccccc32)cc1 | 9.76%
O=C(NC(=S)N1CCN(c2ccc([N+](=O)[O-])cc2)CC1)c1ccc(F)cc1 | -58.5%
S=C(Nc1ccc(Cl)cc1)N1CCN(C2CCCCC2)CC1 | -10.4%
C=CCNC(=S)NCc1ccccc1 | 6.59%
CCOC(=O)NN1C(=O)c2ccccc2NC1C (stereo not drawn) | -5.76%

SMILES | hERG current change (%, negative = inhibition) at 10uM
Cc1c(N=N/C(C(=O)Nc2ccccc2)=C(/O)c2ccccc2)c(=O)n(-c2ccccc2)n1C | 8.85%
CCOC(=O)N1CCC(NC(=O)c2ccc3c(c2)N(C)C(=O)/C(=C/c2cccc(OC)c2)S3)CC1 | 4.21%
Cn1c(-c2cccs2)[n+](C)c2ccccc21.[Cl-] | -25.3%
N=c1c2c(-c3ccccc3)c(-c3ccccc3)n(Cc3ccco3)c2ncn1Cc1ccco1 | -71.2%
O=C1c2ccccc2-c2nnc(-c3ccc(F)cc3)cc21 | 4.62%
O=c1[nH]cnc2c1c(-c1ccccc1)cn2-c1cccc(Cl)c1 | 7.63%
CCn1c(CN2CCN(c3ccc(OC)cc3)CC2)nc2cc(S(=O)(=O)N(C)C)ccc21 | 25.7%
COc1ccccc1C1CC(c2ccc(Cl)cc2Cl)Nc2nc(N)nn21 (stereo not drawn) | -44.7%
CC(C)(C)C1CCC(OC(=O)CCC(=O)Nc2ccccc2)CC1 (stereo not drawn) | 8%
CCN1CCN(C(CNS(=O)(=O)c2cccs2)c2cccnc2)CC1 (stereo not drawn) | -61.4%
COc1ccc2c(c1)C(C)=CC(C)(C)N2C(=O)CNCc1ccc2c(c1)OCO2.O=C(O)C(=O)O | -23%
CCn1cc(Br)c(C(=O)N(C)Cc2ccccc2)n1 | 6.42%
COC(=O)c1scc2c(Oc3ccccc3)cc(C(F)(F)F)nc12 | 8.62%
Cc1ccc(C2NCCS2)cc1 (stereo not drawn) | 14%
O=C1C/C(=C/NCc2ccccc2)C(=O)N1 | 9.47%
O=Cc1ccc(Oc2cnccn2)cc1 | 19.8%
C=CCNc1nc(C(=O)OCC(=O)Nc2c(Cl)cccc2C(F)(F)F)cs1 | 16%
O=C(c1cc(-c2ccc(F)cc2)on1)N1CCOCC1 | 3.48%
CC(C)C1Nc2ccc(C(=O)NCCCN3CCOCC3)cc2NC1=O (stereo not drawn) | 19.3%
COc1ccc(Cl)cc1NC(=O)CN(C)C(=O)c1ccc(N2CCCCCC2)c([N+](=O)[O-])c1 | 5.32%
Cc1cc2oc(=O)ccc2cc1[N+](=O)[O-] | 17.4%
COc1cc(OC)cc(C(=O)OCC(=O)Nc2ccc(F)cc2F)c1 | 4.34%
O=C(c1cc2ccccc2c(=O)o1)N1CCCc2ccccc21 | 10.4%

SMILES | hERG current change (%, negative = inhibition) at 10uM
CCC(=O)N1c2ccc(S(=O)(=O)CCC(=O)Nc3ccc(OC)cc3OC)cc2CC1C (stereo not drawn) | 6.78%
Cc1cccc(C)c1NC(=O)CNC(=O)C12CC3CC(CC(O)(C3)C1)C2 | 21%
COc1cc(C(C(=O)NC2CCCC2)N(CCO)C(=O)Cn2nnc(-c3ccc(C)o3)n2)ccc1O (stereo not drawn) | 9.04%
COc1ccccc1/C=C/C(=O)c1ccc(NC(C)=O)cc1 | 0.555%
COc1ccccc1NC(=O)CSc1nnc(-c2ccncc2)o1 | 11.1%
CCOC(=O)Cn1c(COc2ccccc2OC)[n+](C)c2ccccc21 | 7.4%
CCN(c1ccc(NC(=O)COC(=O)c2ccc(C)s2)cc1)C(C)C | 10.5%
CCC(C)C(NC(=O)C1CCC(C)CC1)C(=O)NCc1ccccn1 (stereo not drawn) | -4.46%
O=C(NCC(=O)N(c1cccc(F)c1)C(C(=O)NC1CCCC1)c1ccco1)c1ccco1 (stereo not drawn) | 8.07%
COc1cc(C(=O)OCC(=O)N2c3ccccc3NC(=O)C2(C)C)ccc1OCC(C)C | 9.06%
O=C(Nc1cccc([N+](=O)[O-])c1)c1ccc2nc(N3C(=O)CCC3=O)sc2c1 | -20.1%
Cc1ccc(NS(=O)(=O)c2cc(C(=O)O)ccc2Cl)c(C)c1 | 3.51%
Cl.Nc1cc(Cl)ccc1N1CCCC1 | 8.82%
Cc1cc(N/C=C/C(=O)c2cccc3ccccc23)no1 | -2.81%
Cc1ccc(C(=O)Nc2cc([N+](=O)[O-])ccc2C)cc1 | -4.54%
CCC(C(=O)NC1CC1)n1nc(C)c2c(C)n(-c3ccc(C)cc3)nc2c1=O (stereo not drawn) | -62%
O=C(c1ccc2nc(-c3ccco3)c(-c3ccco3)nc2c1)N1CCC2(CC1)OCCO2 | -17.7%
COc1cccc(CNC(=O)CCCn2nc(C)c3c(C)n(-c4ccccc4)nc3c2=O)c1 | -10%
NS(=O)(=O)c1ccc(CCNC(=O)CN2CCN(Cc3cccc(C(F)(F)F)c3)CC2)cc1 | 14.9%
Cc1c(Cl)ccc(S(=O)(=O)NCCCn2ccnc2)c1Cl | -8.68%
COC1CCN(C(=O)CC2C(=O)NCCN2CC(C)(C)C)CC1 (stereo not drawn) | 18.5%
